The IC50 comes from the fitted curve, where viability falls to half of the control; a fit beyond the top or the lowest dose is shown as a bound at that dose. AUC sums up the same curve from the lowest dose to the 256-fold higher top dose; values near 1 show little effect. For some of these results: The top dose, if marked as inferred, was derived from the fitted curves, not read from the paper. For some of these results: Where an entry number is given, a second screen of the drug exists; the two often differ.
Experiments:
Experiment in all cases: Viability of human cancer cell lines after 72 h of drug (GDSC screen)
CEP-701 = compound: C[C@]12O[C@H](C[C@]1(O)CO)n1c3ccccc3c3c4c(c5c6ccccc6n2c5c31)CNC4=O [CEP-701]; conditions: top dose 2 µM; top dose inferred
Procedure: (§1)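 Human cancer cell lines in 384-well plates, medium with 10% serum, drug for 72 h over a 256-fold dose range (nine 2-fold or five 4-fold steps up to the top dose). Adherent lines were fixed and stained with the nucleic acid dye Syto60, suspension lines read with resazurin; signal relative to control wells, capped at 0 and 100%. One two-parameter sigmoid per drug and line, fitted in a mixed model over all curves with the slope shared within a line.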

SB 216763 = compound: Cn1cc(C2=C(c3ccc(Cl)cc3Cl)C(=O)NC2=O)c2ccccc21 [SB 216763]; conditions: top dose 10 µM; top dose inferred
Procedure: as §1

AR-42 = compound: CC(C)[C@H](C(=O)Nc1ccc(C(=O)NO)cc1)c1ccccc1 [AR-42]; conditions: top dose 5.12 µM; top dose inferred
Procedure: as §1

GDC0941 = compound: CS(=O)(=O)N1CCN(Cc2cc3nc(-c4cccc5[nH]ncc45)nc(N4CCOCC4)c3s2)CC1 [GDC0941]; conditions: top dose 4 µM; screen: GDSC drug entry 1527; top dose inferred
Procedure: as §1

Pazopanib = compound: Cc1ccc(Nc2nccc(N(C)c3ccc4c(C)n(C)nc4c3)n2)cc1S(N)(=O)=O [Pazopanib]; conditions: top dose 8 µM
Procedure: as §1

| Cell Line | AUC (CEP-701) | IC50 (CEP-701) [nM] | AUC (SB 216763) | IC50 (SB 216763) [nM] | AUC (AR-42) | IC50 (AR-42) [nM] | AUC (GDC0941) | IC50 (GDC0941) [nM] | AUC (Pazopanib) | IC50 (Pazopanib) [nM] |
| --- | --- | --- | --- | --- | --- | --- | --- | --- | --- | --- |
| H2722 (mesothelioma, adherent) | 0.873 | > 2000 | 0.984 | > 10000 | 0.605 | 657 | 0.862 | > 4000 | 0.904 | > 8000 |
| H2731 (mesothelioma, adherent) | 0.737 | 663 | 0.984 | > 10000 | 0.173 | 27.3 | 0.821 | 2770 | 0.758 | 3160 |
| H2869 (mesothelioma, adherent) | 0.931 | > 2000 | 0.969 | > 10000 | 0.659 | 990 | 0.953 | > 4000 | 0.878 | > 8000 |
| H3255 (lung adenocarcinoma, adherent) | 0.76 | 832 | 0.983 | > 10000 | 0.804 | 3160 | 0.846 | 3810 | 0.874 | > 8000 |
| HCC38 (breast, adherent) | 0.869 | > 2000 | 0.986 | > 10000 | 0.607 | 644 | 0.928 | > 4000 | 0.976 | > 8000 |
| HCC202 (breast, adherent) | 0.972 | > 2000 | 0.981 | > 10000 | 0.454 | 229 | 0.805 | 3070 | 0.818 | 7090 |
| HCC1395 (breast, adherent) | 0.861 | > 2000 | 0.981 | > 10000 | 0.911 | > 5120 | 0.835 | 3420 | 0.719 | 2400 |
| HCC1419 (breast, adherent) | 0.969 | > 2000 | 0.982 | > 10000 | 0.618 | 777 | 0.869 | > 4000 | 0.877 | > 8000 |
| HCC1428 (breast, adherent) | 0.976 | > 2000 | 0.987 | > 10000 | 0.511 | 344 | 0.979 | > 4000 | 0.909 | > 8000 |
| HCC1569 (breast, adherent) | 0.942 | > 2000 | 0.968 | > 10000 | 0.625 | 793 | 0.683 | 973 | 0.866 | > 8000 |
| HCC1954 (breast, adherent) | 0.923 | > 2000 | 0.985 | > 10000 | 0.699 | 1280 | 0.801 | 2340 | 0.936 | > 8000 |
| HCC-44 (lung adenocarcinoma, adherent) | 0.587 | 215 | 0.982 | > 10000 | 0.434 | 212 | 0.743 | 1220 | 0.935 | > 8000 |
| HCC-56 (large intestine, adherent) | 0.891 | > 2000 | 0.964 | > 10000 | 0.509 | 339 | 0.892 | > 4000 | 0.987 | > 8000 |
| HCC-78 (lung adenocarcinoma, adherent) | 0.702 | 515 | 0.96 | > 10000 | 0.529 | 389 | 0.689 | 935 | 0.953 | > 8000 |
| HDQ-P1 (breast, adherent) | 0.763 | 856 | 0.985 | > 10000 | 0.547 | 442 | 0.825 | 3050 | 0.968 | > 8000 |
| HEC-1 (endometrium, adherent) | 0.642 | 303 | 0.979 | > 10000 | 0.642 | 779 | 0.855 | 3010 | 0.961 | > 8000 |
| HGC-27 (stomach, adherent) | 0.582 | 202 | 0.976 | > 10000 | 0.574 | 493 | 0.384 | 127 | 0.868 | 5510 |
| HMV-II (melanoma, adherent) | 0.632 | 315 | 0.969 | > 10000 | 0.667 | 1040 | 0.918 | > 4000 | 0.65 | 1440 |
| HN (head and neck, adherent) | 0.445 | 89.5 | 0.965 | > 10000 | 0.883 | 4900 | 0.744 | 1190 | 0.981 | > 8000 |
| HO-1-u-1 (head and neck, adherent) | 0.617 | 258 | 0.938 | > 10000 | 0.666 | 909 | 0.879 | 3790 | 0.931 | > 8000 |
| HOP-92 (large cell lung carcinoma, adherent) | 0.75 | 746 | 0.941 | > 10000 | 0.754 | 1970 | 0.619 | 561 | 0.884 | > 8000 |
| HSC-2 (head and neck, adherent) | 0.863 | 1520 | 0.989 | > 10000 | 0.803 | 2320 | 0.726 | 1030 | 0.989 | > 8000 |
| HSC-4 (head and neck, adherent) | 0.599 | 256 | 0.947 | > 10000 | 0.786 | 3040 | 0.627 | 631 | 0.977 | > 8000 |
| HT-3 (cervix, adherent) | 0.695 | 444 | 0.983 | > 10000 | 0.565 | 482 | 0.85 | 3100 | 0.987 | > 8000 |
| HT-115 (large intestine, adherent) | 0.85 | 1320 | 0.962 | > 10000 | 0.563 | 467 | 0.886 | 3760 | 0.969 | > 8000 |
| HT-1080 (fibrosarcoma, adherent) | 0.264 | 28.9 | 0.987 | > 10000 | 0.764 | 1680 | 0.82 | 1990 | 0.917 | > 8000 |

| Cell Line | AUC (CEP-701) | IC50 (CEP-701) [nM] | AUC (SB 216763) | IC50 (SB 216763) [nM] | AUC (AR-42) | IC50 (AR-42) [nM] | AUC (GDC0941) | IC50 (GDC0941) [nM] | AUC (Pazopanib) | IC50 (Pazopanib) [nM] |
| --- | --- | --- | --- | --- | --- | --- | --- | --- | --- | --- |
| HT-1197 (bladder, adherent) | 0.95 | > 2000 | 0.947 | > 10000 | 0.593 | 603 | 0.711 | 1110 | 0.878 | > 8000 |
| HT-1376 (bladder, adherent) | 0.89 | > 2000 | 0.984 | > 10000 | 0.93 | > 5120 | 0.812 | 2640 | 0.919 | > 8000 |
| Hs633T (fibrosarcoma, adherent) | 0.346 | 51.1 | 0.977 | > 10000 | 0.473 | 274 | 0.8 | 1540 | 0.98 | > 8000 |
| Hs683 (glioma, adherent) | 0.707 | 484 | 0.913 | > 10000 | 0.756 | 1760 | 0.909 | > 4000 | 0.935 | > 8000 |
| HuCCT1 (biliary tract, adherent) | 0.717 | 556 | 0.981 | > 10000 | 0.655 | 907 | 0.734 | 1270 | 0.947 | > 8000 |
| HuH-7 (liver, adherent) | 0.849 | 1490 | 0.978 | > 10000 | 0.523 | 369 | 0.895 | > 4000 | 0.801 | 3890 |
| HuO9 (osteosarcoma, adherent) | 0.629 | 296 | 0.979 | > 10000 | 0.757 | 1950 | 0.55 | 348 | 0.976 | > 8000 |
| HuO-3N1 (osteosarcoma, adherent) | 0.681 | 474 | 0.982 | > 10000 | 0.846 | > 5120 | 0.815 | 3140 | 0.884 | > 8000 |
| IHH-4 (thyroid, semi-adherent) | 0.536 | 153 | 0.99 | > 10000 | 0.518 | 355 | 0.86 | 2340 | 0.945 | > 8000 |
| IPC-298 (melanoma, adherent) | 0.224 | 19.9 | 0.988 | > 10000 | 0.422 | 196 | 0.849 | 2920 | 0.934 | > 8000 |
| JEG-3 (urogenital system, adherent) | 0.775 | 712 | 0.985 | > 10000 | 0.991 | > 5120 | 0.915 | > 4000 | 0.914 | > 8000 |
| JHH-1 (liver, adherent) | 0.79 | 973 | 0.985 | > 10000 | 0.294 | 79.6 | 0.569 | 393 | 0.669 | 1540 |
| JHH-2 (liver, adherent) | 0.756 | 732 | 0.984 | > 10000 | 0.592 | 583 | 0.822 | 2580 | 0.986 | > 8000 |
| JHH-4 (liver, adherent) | 0.715 | 506 | 0.847 | 7300 | 0.364 | 135 | 0.827 | 2440 | 0.546 | 667 |
| JHH-6 (liver, adherent) | 0.797 | 961 | 0.987 | > 10000 | 0.745 | 1630 | 0.692 | 872 | 0.982 | > 8000 |
| JIMT-1 (breast, adherent) | 0.823 | 1300 | 0.972 | > 10000 | 0.791 | 2490 | 0.636 | 615 | 0.869 | > 8000 |
| JVM-3 (lymphoid neoplasm, suspension) | 0.412 | 71.6 | 0.958 | > 10000 | 0.469 | 264 | 0.785 | 1740 | 0.985 | > 8000 |
| K2 (melanoma, adherent) | 0.775 | 1040 | 0.982 | > 10000 | 0.726 | 1720 | 0.85 | > 4000 | 0.943 | > 8000 |
| KE-37 (lymphoblastic leukaemia, suspension) | 0.185 | 19.8 | 0.992 | > 10000 | 0.302 | 104 | 0.965 | > 4000 | 0.985 | > 8000 |
| KINGS-1 (glioma, adherent) | 0.644 | 364 | 0.944 | > 10000 | 0.499 | 317 | 0.829 | 3890 | 0.944 | > 8000 |
| KMH-2 (thyroid, adherent) | 0.731 | 519 | 0.963 | > 10000 | 0.96 | > 5120 | 0.86 | 2770 | 0.896 | 7990 |
| KMRC-1 (kidney, adherent) | 0.889 | > 2000 | 0.924 | > 10000 | 0.62 | 702 | 0.874 | > 4000 | 0.896 | > 8000 |
| KMRC-20 (kidney, adherent) | 0.682 | 408 | 0.985 | > 10000 | 0.863 | 4550 | 0.885 | > 4000 | 0.942 | > 8000 |
| KON (head and neck, adherent) | 0.431 | 81.2 | 0.987 | > 10000 | 0.937 | > 5120 | 0.648 | 637 | 0.956 | > 8000 |
| KOPN-8 (B-cell leukaemia, suspension) | 0.433 | 84.5 | 0.99 | > 10000 | 0.206 | 51.7 | 0.923 | > 4000 | 0.988 | > 8000 |
| KP-2 (pancreas, adherent) | 0.78 | 893 | 0.964 | > 10000 | 0.585 | 558 | 0.842 | 3160 | 0.981 | > 8000 |
